PubChem BioAssay AID485281 (National Center for Advancing Translational Sciences (NCATS), 2010)
Where “and” joins values, the source holds several entries; their conditions need not be identical. Equal entries are not always repeated. In all, about 350,000 compounds went through this assay and about 260 (0.074%) were called active. Inconclusive means that the source gave no clear call. Such entries were picked first, then a sample of the others. The call rests on the fitted dose curve; in most records, active means well fitted inhibition curve with a large enough effect; inconclusive means small, poorly fitted or top-dose-only effect; inactive means no such curve, though single readings can be large or run the other way. Potencies of inconclusive entries are doubtful fits and often do not repeat.
Further: nearly all actives have a fitted effect of over 20% in size.
On the % scale 0 is the no-effect control and ±100 the full control effect; potency means the concentration at half of the fitted maximal effect; tags describe the fitted curve by direction and shape.

What follows are molecules tested against Ferritin light chain (Equus caballus) (UniProt P02791) (assay: qHTS Assay for Identification of Novel General Anesthetics). Conditions: apoferritin/1-aminoanthracene competitive binding, fluorescence; activity change, negative = displacement: at 77.5 µM (top of the series).
UniProt P02791, sequence (P02791 whole entry, looked up): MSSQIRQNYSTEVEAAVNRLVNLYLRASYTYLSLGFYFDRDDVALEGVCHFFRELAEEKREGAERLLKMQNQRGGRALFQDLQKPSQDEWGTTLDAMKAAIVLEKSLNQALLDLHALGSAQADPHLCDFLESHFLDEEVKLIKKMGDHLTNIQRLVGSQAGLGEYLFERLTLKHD
How it was run: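 10 uM apoferritin + 50% sat. 1-AMA, PBS; cpd 10 min RT; Ex380/Em535 endpoint; normalized to free probe vs complex; 4-param Hill fit; propofol titration as pos. ctrl.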
For `COC(=O)C1=NN(c2cccc3ccccc23)C2C(=O)N(c3ccccc3OC)C(=O)C12` (stereo not drawn), the “activity change, negative = displacement” value was inactive: 5.04%.
For `CCC(C)n1c(SCc2c(F)cccc2Cl)nc2ccsc2c1=O` (stereo not drawn), the Potency was inconclusive: 11.2 µM [inhibitor, single point].
For `COc1cc(OC)c(OC)cc1/C=N/NC(=O)CC1C(=O)NN=C1C` (stereo not drawn), the “activity change, negative = displacement” value was inactive: 1.04%.
In the case of `Cc1ccc(NC2CCCN(C(=O)CCC3(C)CC3)C2)cc1C` (stereo not drawn), the Potency is reported as inconclusive: 35.5 µM [inhibitor, single point].
With `CC1CCN(CCCNC(=O)c2cn(C)c3ccc(S(=O)(=O)N(C)C4CCCCC4)cc3c2=O)CC1` the Potency was inconclusive: 50.1 µM [inhibitor, single point].
In the case of `CC(C)(C)C1CCc2c(sc(NC(=O)C3CCCO3)c2C(N)=O)C1` (stereo not drawn), the Potency is reported as inconclusive: 35.5 µM [inhibitor, partial curve].
For `COc1ccc(OC)c(NC(=O)CCc2c(C)nn(-c3ccc(N4CCCC4)nn3)c2C)c1`, the Potency was inconclusive: 7.08 µM [inhibitor, full curve].
In the case of `CCOC(=O)c1ccc(NC(=S)NCC(O)c2ccccc2)cc1` (stereo not drawn), the Potency is reported as inconclusive: 28.2 µM [inhibitor, partial curve].
With `O=C1N(CC(=O)N2CCc3ccccc32)CCN1Cc1ccccc1Cl` the Potency was inconclusive: 25.1 µM [inhibitor, partial curve].
For `O=S(=O)(Nc1cccc2cccnc12)c1ccccc1`, the Potency was inconclusive: 25.1 µM [inhibitor, partial curve].
In the case of `COc1ccc(C(=O)N/C(=C\c2cn(C)c3ccccc23)C(=O)NCCCn2ccnc2)cc1`, the Potency is reported as inconclusive: 17.8 µM [inhibitor, partial curve].
In the case of `CC(=O)Nc1ccc(OCc2cccc([N+](=O)[O-])c2)cc1`, the Potency is reported as inconclusive: 22.4 µM [inhibitor, partial curve].
With `CCOC(=O)c1c(NC(=O)CSc2n[nH]c(-c3ccco3)n2)sc(C)c1C` the Potency was inconclusive: 50.1 µM [inhibitor, single point].
In the case of `N#Cc1c(-n2ncnc2-c2ccc(Br)cc2)sc2c1CCCCC2`, the Potency is reported as inconclusive: 6.31 µM [inhibitor, partial curve].
`CCOC(=O)c1cnn(-c2ccc(NS(=O)(=O)c3ccc(Cl)cc3)cc2)c1C(F)(F)F` was tested, and the Potency was inconclusive: 56.2 µM [inhibitor, single point].
For `Cn1cc(C(=O)c2cccc(Cl)c2Cl)cc1C#N`, the Potency was inconclusive: 35.5 µM [inhibitor, partial curve].
For `CC(C)c1nnc(NC(=O)CCC(=O)N2CCN(c3ccc(Cl)cc3)CC2)s1`, the “activity change, negative = displacement” value was inactive: -15.9%.
`O=[N+]([O-])c1ccc(N2CCN(S(=O)(=O)c3ccccc3)CC2)cc1NCC1CCCO1` (stereo not drawn) was tested, and the “activity change, negative = displacement” value was inactive: -4.72%.
With `CC(=O)c1ccc(OC(=O)N(c2ccccc2)c2ccccc2)cc1` the Potency was inconclusive: 10 µM [inhibitor, full curve].
`CCn1cc(Br)c(C(=O)NC(C)c2ccccc2)n1` (stereo not drawn) was tested, and the Potency was inconclusive: 50.1 µM [inhibitor, partial curve].
In the case of `CC(=O)CSc1nc2ccccc2s1`, the Potency is reported as inconclusive: 39.8 µM [inhibitor, single point].
`CC(C)c1ccc(NC(=O)C2CCN(c3nc(-c4ccc(C(C)C)cc4)no3)CC2)cc1` was tested, and the “activity change, negative = displacement” value was inactive: 40.1%.
In the case of `CC(C)CC(=O)Nc1ccc(S(=O)(=O)Nc2cc3c(cc2N2CCOCC2)n(C)c(=O)c(=O)n3C)cc1`, the Potency is reported as inconclusive: 28.2 µM [inhibitor, partial curve].
`Cc1nc2sccn2c(=O)c1CCN1CCC(=C(c2ccc(F)cc2)c2ccc(F)cc2)CC1` was tested, and the Potency was inconclusive: 35.5 µM [inhibitor, partial curve].
For `COc1ccc(CNC(=O)c2cc(-c3cccc(Cl)c3)on2)cc1`, the Potency was inconclusive: 6.31 µM [inhibitor, partial curve].
In the case of `C=CC[n+]1c(/C=C2\C=Cc3cc(C)ccc3N2CC)ccc2ccccc21`, the Potency is reported as inconclusive: 31.6 µM [inhibitor, partial curve].
For `C[C@H](CCC(=O)NCC(=O)O)C1CC[C@H]2[C@H]3C(C[C@H](O)[C@]12C)[C@@]1(C)CC[C@@H](O)C[C@H]1C[C@H]3O` (stereo partly drawn), the “activity change, negative = displacement” value was inactive: -2.21%.
`Cc1ccc2[nH]c(=O)c(CN(Cc3nnnn3Cc3ccccc3)C3CCCC3)cc2c1` was tested, and the “activity change, negative = displacement” value was inactive: -5.3%.
For `NC(=O)NC(=O)COC(=O)CC12CC3CC(CC(C3)C1)C2`, the Potency was inconclusive: 10 µM [inhibitor, partial curve].
`COc1ccccc1CNc1cc(C)ccn1` was tested, and the Potency was inconclusive: 44.7 µM [inhibitor, partial curve].
With `O=C(NCc1ccc2c(c1)OCO2)C(=O)NCC1CCCO1` (stereo not drawn) the Potency was inconclusive: 31.6 µM [inhibitor, partial curve].
In the case of `CCCCc1ccc(NC(=O)CC(C)=O)cc1`, the Potency is reported as inconclusive: 28.2 µM [inhibitor, partial curve].
In the case of `Cc1ccc(O)c(N=CC2=C(O)c3ccccc3C2=O)c1`, the Potency is reported as inconclusive: 35.5 µM [inhibitor, partial curve].
In the case of `Cc1ccc(C)c(C(=O)C(C)OC(=O)c2cccn2C)c1` (stereo not drawn), the Potency is reported as inconclusive: 31.6 µM [inhibitor, single point].
In the case of `O=C(C=C1CCN(c2ncc(C(F)(F)F)cc2Cl)CC1)NNC(=O)Nc1ccccc1`, the “activity change, negative = displacement” value is reported as inactive: -22.5%.
With `O=C(COC(=O)c1ccccc1NC(=O)c1ccco1)NCC1CCCCC1` the Potency was inconclusive: 11.2 µM [inhibitor, partial curve].
For `CCN(CC)S(=O)(=O)c1ccc2c(c1)c(=O)c(C(=O)NCCc1ccc(OC)c(OC)c1)cn2C`, the Potency was inconclusive: 50.1 µM [inhibitor, single point] and inconclusive: 17.8 µM [inhibitor, partial curve].
With `COc1ccc(OC)c(NC(=O)CN2CCC(C(=O)c3ccc(C)cc3)CC2)c1` the Potency was inconclusive: 25.1 µM [inhibitor, partial curve].
`CCN(CC)C(=O)C1CCN(Cc2cccc(OCc3ccccc3)c2)CC1` was tested, and the Potency was inconclusive: 50.1 µM [inhibitor, single point].
For `CCOC(=O)c1nnn(-c2nonc2N)c1COc1cc(C)c(Cl)c(C)c1`, the Potency was inconclusive: 44.7 µM [inhibitor, partial curve].
In the case of `CCc1nc(SCC(=O)c2ccc(C)c(C)c2)n[nH]1`, the Potency is reported as inconclusive: 28.2 µM [inhibitor, single point].
For `O=C1c2c(O)ccc(O)c2C(=O)c2c(NCCNCCO)ccc(NCCNCCO)c21`, the Potency was inconclusive: 11.2 µM [inhibitor, single point] and inconclusive: 39.8 µM [inhibitor, single point].
`COc1cc(OC)cc(-c2cc3nc(C4CCN(C(=O)OC(C)(C)C)CC4)cc(=O)n3[nH]2)c1` was tested, and the Potency was inconclusive: 11.2 µM [inhibitor, full curve, poor fit].
With `COC(=O)CN1C(=O)CSc2ccc(S(=O)(=O)Nc3ccccc3)cc21` the “activity change, negative = displacement” value was inactive: -14.5%.
For `CCCCSc1nc(CCC)cc(=O)[nH]1`, the Potency was inconclusive: 50.1 µM [inhibitor, single point].
With `Cc1cc(N2CCN(S(=O)(=O)c3ccccc3)CC2)c2ccccc2n1` the Potency was inconclusive: 3.98 µM [inhibitor, full curve, poor fit].
For `CCOc1ccc(N2C(=O)CC(N(CCc3ccc(OC)c(OC)c3)C(=S)Nc3ccccc3)C2=O)cc1` (stereo not drawn), the Potency was inconclusive: 3.16 µM [inhibitor, full curve, poor fit].
In the case of `CCOC(=O)c1c(NC(=S)NCc2ccccc2)sc2c1CCN(C(=O)OCC)C2`, the Potency is reported as inconclusive: 35.5 µM [inhibitor, single point].
`O=c1[nH]c2cc3c(cc2cc1CN(Cc1cccnc1)Cc1nnnn1Cc1ccco1)OCCO3` was tested, and the “activity change, negative = displacement” value was inactive: 103%.
For `COc1ccc(/C=C/c2ccncc2)c2ccccc12`, the “activity change, negative = displacement” value was inactive: -14.9%.
For `CCn1cc(C(=O)NCc2ccc3c(c2)OCO3)c(=O)c2cc(S(=O)(=O)N3CCOCC3)ccc21`, the Potency was inconclusive: 14.1 µM [inhibitor, partial curve].
`COc1ccc(NC(=O)CCCC(=O)OCC(=O)c2cccc(OC)c2)cc1` was tested, and the Potency was inconclusive: 12.6 µM [inhibitor, partial curve].
For `COc1ccccc1C(=O)Nc1ccc2c(c1)nc(CCNC(C)=O)n2C`, the “activity change, negative = displacement” value was inactive: 4.19%.
`Cc1ccnc(NS(=O)(=O)c2ccc(Oc3ccccc3)cc2)c1` was tested, and the Potency was inconclusive: 6.31 µM [inhibitor, single point].
With `CC1Cc2ccccc2N1C(=O)CN1C(=O)NC(C)(c2ccc3c(c2)OCCO3)C1=O` (stereo not drawn) the Potency was inconclusive: 28.2 µM [inhibitor, partial curve].
With `O=C(Cn1c(=O)c2cccn2c2ccccc21)Nc1ccc(F)cc1F` the Potency was inconclusive: 20 µM [inhibitor, partial curve].
With `CCOC(=O)c1cnc2ccc(C)cc2c1Sc1ccccc1C(=O)OC` the Potency was inconclusive: 17.8 µM [inhibitor, partial curve].
`CCN(CC)C(=O)Cn1nc(C)c2ccccc2c1=O` was tested, and the Potency was inconclusive: 56.2 µM [inhibitor, single point].
With `CCCCn1c(CNC(=O)C23CC4CC(CC(C4)C2)C3)nnc1SCC(=O)Nc1ccc(F)cc1` the Potency was inconclusive: 15.8 µM [inhibitor, partial curve].
With `Cc1cccc(NC(=O)Nc2nnc(N3CCCC3)s2)c1` the Potency was inconclusive: 0.891 µM [inhibitor, full curve, poor fit].
`CNC(=O)c1nn(-c2ccc(Cl)cc2)ccc1=O` was tested, and the “activity change, negative = displacement” value was inactive: 4.3%.
`CCCNC(=O)OC[C@H]1O[C@@H](CCO/N=C\[C@@H](NS(=O)(=O)c2ccc(C)cc2)[C@H](C)/C=C\CC(=O)OC)C=C[C@@H]1Oc1ccc(OC)cc1` was tested, and the activity change, negative = displacement was inactive: -5.92% [at 15.3 µM].
For `Brc1cccc2sc(N3CCCC3)nc12`, the Potency was inconclusive: 39.8 µM [inhibitor, single point].
